# Several values for one entry are separate records, joined by “and”; a condition that tells them apart may be missing. Identical values can stand only once. In all, about 2,900 compounds were measured (“NF-kB SEAP reporter activity, fold change vs agonist alone”: median about 0.99, highest 2% from about 2.6 on). Some of the results follow.
# How the values were obtained:
# RAW-Dual [1] = test: NF-kB SEAP reporter activity, fold change vs agonist alone; cytotoxicity flag (confluency mask): not cytotoxic; higher = enhanced NF-kB activity
# Procedure, shortened: (§1)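 Reporter activity is given as fold change relative to agonist-alone wells. To measure it, 50 nL of library stock was pin-tooled onto RAW-Dual macrophages (50,000 cells/well, DMEM, 384-well plates), a PRR agonist followed 1 h later, and cells stayed at 37 °C, 5% CO2. Twenty hours on, supernatant was assayed for IRF (QuantiLuc luminescence) and NF-κB (QuantiBlue, 620 nm absorbance), and wells under 70% of agonist-control IncuCyte confluency in both mask sets were marked cytotoxic.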
# RAW-Dual [2] = test: NF-kB SEAP reporter activity, fold change vs agonist alone; higher = enhanced NF-kB activity
# Procedure, shortened: as §1
# RAW-Dual [3] = test: NF-kB SEAP reporter activity, fold change vs agonist alone; cytotoxicity flag (confluency mask): cytotoxic (confluency <70% of control); higher = enhanced NF-kB activity
# Procedure, shortened: as §1
# [4] = agonist: ODN 1826 (TLR9) 0.5 ug/mL
# [5] = agonist: Pam2CSK4 (TLR2/6) 0.1 ug/mL
# [6] = agonist: Pam3CSK4 (TLR2/1) 0.1 ug/mL
# [7] = library stock concentration (final ~1000-fold dilution): 10 mM, cytotoxicity flag (confluency mask): not cytotoxic, agonist: Imiquimod (TLR7) […]
# [8] = library stock concentration (final ~1000-fold dilution): 10 mM, cytotoxicity flag (confluency mask): not cytotoxic, agonist: MPLA (TLR4) […]
compound,measurement,setting,value
c1ccc(-c2ccc(C(c3ccccc3)n3ccnc3)cc2)cc1 (stereo unspecified) (library stock concentration (final ~1000-fold dilution): 10 mM),NF-kB SEAP reporter activity,RAW-Dual [1]; agonist: LPS (TLR4) 0.1 ug/mL,1.01
same,NF-kB SEAP reporter activity,RAW-Dual [1]; [4],0.704
same,NF-kB SEAP reporter activity,RAW-Dual [1]; [5],0.589
same,NF-kB SEAP reporter activity,RAW-Dual [1]; [6],0.574
c1ccc(-c2ccc(C(c3ccccc3)n3ccnc3)cc2)cc1 (stereo unspecified),NF-kB SEAP reporter activity,RAW-Dual [2]; [7],0.86
same,NF-kB SEAP reporter activity,RAW-Dual [2]; [8],0.867
COc1cc2c(cc1O)CC[n+]1cc3c(OC)c(OC)ccc3cc1-2 (library stock concentration (final ~1000-fold dilution): 10 mM),NF-kB SEAP reporter activity,RAW-Dual [1]; agonist: LPS (TLR4) 0.1 ug/mL,1.01 and 1.19
same,NF-kB SEAP reporter activity,RAW-Dual [1]; [4],0.974 and 1.04
same,NF-kB SEAP reporter activity,RAW-Dual [1]; [5],0.965 and 1.09
same,NF-kB SEAP reporter activity,RAW-Dual [1]; [6],1.1 and 1.11
O=c1[nH]c2ccccc2n1CCN1CCN(c2cccc(C(F)(F)F)c2)CC1,NF-kB SEAP reporter activity,RAW-Dual [2]; [7],0.669
same,NF-kB SEAP reporter activity,RAW-Dual [2]; [8],0.534
O=c1[nH]c2ccccc2n1CCN1CCN(c2cccc(C(F)(F)F)c2)CC1 (library stock concentration (final ~1000-fold dilution): 10 mM),NF-kB SEAP reporter activity,RAW-Dual [1]; agonist: LPS (TLR4) 0.1 ug/mL,0.314
same,NF-kB SEAP reporter activity,RAW-Dual [1]; [4],0.45
same,NF-kB SEAP reporter activity,RAW-Dual [1]; [5],0.284
same,NF-kB SEAP reporter activity,RAW-Dual [1]; [6],0.386
COc1cc(/C=C/C(=O)/C=C(O)/C=C/c2ccc(O)c(OC)c2)ccc1O (library stock concentration (final ~1000-fold dilution): 10 mM),NF-kB SEAP reporter activity,RAW-Dual [1]; agonist: LPS (TLR4) 0.1 ug/mL,0.794
same,NF-kB SEAP reporter activity,RAW-Dual [1]; [4],0.82
same,NF-kB SEAP reporter activity,RAW-Dual [1]; [5],1.16
same,NF-kB SEAP reporter activity,RAW-Dual [1]; [6],1.2
COc1cc(/C=C/C(=O)/C=C(O)/C=C/c2ccc(O)c(OC)c2)ccc1O,NF-kB SEAP reporter activity,RAW-Dual [2]; [7],0.614
same,NF-kB SEAP reporter activity,RAW-Dual [2]; [8],0.892
COC(=O)C1=C(C)NC(C)=C(C(=O)OC(C)(C)CN(C)CCC(c2ccccc2)c2ccccc2)C1c1cccc([N+](=O)[O-])c1 (stereo unspecified) (library stock concentration (final ~1000-fold dilution): 10 mM),NF-kB SEAP reporter activity,RAW-Dual [1]; agonist: LPS (TLR4) 0.1 ug/mL,1.02
same,NF-kB SEAP reporter activity,RAW-Dual [1]; [4],0.271
same,NF-kB SEAP reporter activity,RAW-Dual [1]; [5],0.383
same,NF-kB SEAP reporter activity,RAW-Dual [1]; [6],0.287
COC(=O)C1=C(C)NC(C)=C(C(=O)OC(C)(C)CN(C)CCC(c2ccccc2)c2ccccc2)C1c1cccc([N+](=O)[O-])c1 (stereo unspecified),NF-kB SEAP reporter activity,RAW-Dual [2]; [7],0.627
same,NF-kB SEAP reporter activity,RAW-Dual [2]; [8],1.3
CCCNC(=O)c1cn2ncnc(Nc3cc(C(=O)NC4CC4)ccc3C)c2c1C,NF-kB SEAP reporter activity,RAW-Dual [2]; [7],0.719
same,NF-kB SEAP reporter activity,RAW-Dual [2]; [8],1.01
CCCNC(=O)c1cn2ncnc(Nc3cc(C(=O)NC4CC4)ccc3C)c2c1C (library stock concentration (final ~1000-fold dilution): 10 mM),NF-kB SEAP reporter activity,RAW-Dual [1]; agonist: LPS (TLR4) 0.1 ug/mL,1.27
same,NF-kB SEAP reporter activity,RAW-Dual [1]; [4],0.685
same,NF-kB SEAP reporter activity,RAW-Dual [1]; [5],0.417
same,NF-kB SEAP reporter activity,RAW-Dual [1]; [6],0.467
CC1CC2C3CCC4=CC(=O)C=CC4(C)C3(F)C(O)CC2(C)C1(O)C(=O)COP(=O)(O)O (stereo unspecified) (library stock concentration (final ~1000-fold dilution): 10 mM water),NF-kB SEAP reporter activity,RAW-Dual [1]; agonist: LPS (TLR4) 0.1 ug/mL,1.42
same,NF-kB SEAP reporter activity,RAW-Dual [1]; [4],1.53
same,NF-kB SEAP reporter activity,RAW-Dual [1]; [5],2
same,NF-kB SEAP reporter activity,RAW-Dual [1]; [6],1.79
CC1CC2C3CCC4=CC(=O)C=CC4(C)C3(F)C(O)CC2(C)C1(O)C(=O)COP(=O)(O)O (stereo unspecified),NF-kB SEAP reporter activity,"RAW-Dual [2]; library stock concentration (final ~1000-fold dilution): 10 mM water, cytotoxicity flag (confluency mask): not cytotoxic, agonist: Imiquimod (TLR7) […]",1.19
same,NF-kB SEAP reporter activity,"RAW-Dual [2]; library stock concentration (final ~1000-fold dilution): 10 mM water, cytotoxicity flag (confluency mask): not cytotoxic, agonist: MPLA (TLR4) […]",1.17
O=C(Nc1cccnc1)c1cc(-c2ccnc(F)c2)ccc1OCc1ccccc1,NF-kB SEAP reporter activity,RAW-Dual [2]; [7],1.08
same,NF-kB SEAP reporter activity,RAW-Dual [2]; [8],1.12
O=C(Nc1cccnc1)c1cc(-c2ccnc(F)c2)ccc1OCc1ccccc1 (library stock concentration (final ~1000-fold dilution): 10 mM),NF-kB SEAP reporter activity,RAW-Dual [1]; agonist: LPS (TLR4) 0.1 ug/mL,1.6
same,NF-kB SEAP reporter activity,RAW-Dual [1]; [4],0.937
same,NF-kB SEAP reporter activity,RAW-Dual [1]; [5],1.1
same,NF-kB SEAP reporter activity,RAW-Dual [1]; [6],1.32
CSCC(N)C(=O)O (stereo unspecified) (library stock concentration (final ~1000-fold dilution): 10 mM),NF-kB SEAP reporter activity,RAW-Dual [1]; agonist: LPS (TLR4) 0.1 ug/mL,1.3
same,NF-kB SEAP reporter activity,RAW-Dual [1]; [4],1.03
same,NF-kB SEAP reporter activity,RAW-Dual [1]; [5],1.12
same,NF-kB SEAP reporter activity,RAW-Dual [1]; [6],1.08
CSCC(N)C(=O)O (stereo unspecified),NF-kB SEAP reporter activity,RAW-Dual [2]; [7],0.816
same,NF-kB SEAP reporter activity,RAW-Dual [2]; [8],0.97
CCCCc1oc2ccc(NS(C)(=O)=O)cc2c1C(=O)c1ccc(OCCCN(CCCC)CCCC)cc1,NF-kB SEAP reporter activity,"RAW-Dual [2]; library stock concentration (final ~1000-fold dilution): 10 mM, cytotoxicity flag (confluency mask): cytotoxic (confluency <70% of control), agonist: Imiquimod (TLR7) […]",2.27
same,NF-kB SEAP reporter activity,"RAW-Dual [2]; library stock concentration (final ~1000-fold dilution): 10 mM, cytotoxicity flag (confluency mask): cytotoxic (confluency <70% of control), agonist: MPLA (TLR4) […]",1.17
CCCCc1oc2ccc(NS(C)(=O)=O)cc2c1C(=O)c1ccc(OCCCN(CCCC)CCCC)cc1 (library stock concentration (final ~1000-fold dilution): 10 mM),NF-kB SEAP reporter activity,RAW-Dual [3]; agonist: LPS (TLR4) 0.1 ug/mL,0.456
same,NF-kB SEAP reporter activity,RAW-Dual [3]; [4],0.256
same,NF-kB SEAP reporter activity,RAW-Dual [3]; [5],0.38
same,NF-kB SEAP reporter activity,RAW-Dual [3]; [6],0.249
COc1cccc2c1C(=O)c1c(O)c3c(c(O)c1C2=O)CC(O)(C(=O)CO)CC3OC1CC(N)C(O)C(C)O1 (stereo unspecified) (library stock concentration (final ~1000-fold dilution): 10 mM),NF-kB SEAP reporter activity,RAW-Dual [1]; agonist: LPS (TLR4) 0.1 ug/mL,0.284
same,NF-kB SEAP reporter activity,RAW-Dual [1]; [4],0.184
same,NF-kB SEAP reporter activity,RAW-Dual [1]; [5],0.0946
same,NF-kB SEAP reporter activity,RAW-Dual [1]; [6],0.139
COc1cccc2c1C(=O)c1c(O)c3c(c(O)c1C2=O)CC(O)(C(=O)CO)CC3OC1CC(N)C(O)C(C)O1 (stereo unspecified),NF-kB SEAP reporter activity,RAW-Dual [2]; [7],0.2
same,NF-kB SEAP reporter activity,RAW-Dual [2]; [8],0.213
COc1cc(Nc2c(C#N)cnc3cc(OCCCN4CCN(C)CC4)c(OC)cc23)c(Cl)cc1Cl,NF-kB SEAP reporter activity,RAW-Dual [2]; [7],1.84
same,NF-kB SEAP reporter activity,RAW-Dual [2]; [8],1.51
COc1cc(Nc2c(C#N)cnc3cc(OCCCN4CCN(C)CC4)c(OC)cc23)c(Cl)cc1Cl (library stock concentration (final ~1000-fold dilution): 10 mM),NF-kB SEAP reporter activity,RAW-Dual [1]; agonist: LPS (TLR4) 0.1 ug/mL,1.62
same,NF-kB SEAP reporter activity,RAW-Dual [1]; [4],1.94
same,NF-kB SEAP reporter activity,RAW-Dual [1]; [5],1.45
same,NF-kB SEAP reporter activity,RAW-Dual [1]; [6],1.77
Clc1ccc(N/N=C(\c2ccccc2)c2ccccn2)nc1 (library stock concentration (final ~1000-fold dilution): 10 mM),NF-kB SEAP reporter activity,RAW-Dual [1]; agonist: LPS (TLR4) 0.1 ug/mL,4.59
same,NF-kB SEAP reporter activity,RAW-Dual [1]; [4],1.18
same,NF-kB SEAP reporter activity,RAW-Dual [1]; [5],0.556
same,NF-kB SEAP reporter activity,RAW-Dual [1]; [6],1.76
Clc1ccc(N/N=C(\c2ccccc2)c2ccccn2)nc1,NF-kB SEAP reporter activity,RAW-Dual [2]; [7],1.5
same,NF-kB SEAP reporter activity,RAW-Dual [2]; [8],2.77

# From the supplement of paper PMC10037445
